# Assay results as given in PubChem BioAssay AID624418 (National Center for Advancing Translational Sciences (NCATS), 2012).
# Hit rate of the full screen: of about 410,000 compounds, about 530 (0.13%) were called active. The shares of active, inactive and inconclusive entries below differ from those in the screen. The call rests on the fitted dose curve; in most records, active means well fitted inhibition curve with a large enough effect; inconclusive means small, poorly fitted or top-dose-only effect, or another doubt; inactive means no such curve, though single readings can be large or run the other way. A potency beside an inconclusive call is a rough fit, not a confirmed value.
# Assay: qHTS of GLP-1 Receptor Inverse Agonists: Cytotox Screen
# Details: HEK293 cAMP-luciferase reporter cells, luminescence, 24 h; activity change, negative = inhibition: at 38.3 µM (top of the series) unless noted
# Method in brief: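 Cells in DMEM/10% Nu serum/1% pen-strep, 1536-well format. Pre-incubated 12 h, dosed with 23 nL compound, incubated a further 24 h. Luciferase detection, 12 min at room temp, luminescence.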
# On the % scale 0 is the no-effect control and ±100 the full control effect; potency means the concentration at half of the fitted maximal effect.
Compound,Potency,"activity change, negative = inhibition"
O=C1COc2ccccc2C(c2nc3ccccc3[nH]2)N1C1CC1 (stereo not given),inactive,
CCOC(=O)c1c(C)oc2ncnc(Nc3ccc(OCC)cc3)c12,inactive,
C=CCNC(=S)NNc1ncnc2sc3c(c12)CC(C)(C)OC3,"inconclusive: 2.82 µM [inhibitor, full curve]",
COc1cccc(NC(=O)CSC2=NN3CCCC(=O)N=C3S2)c1,"inconclusive: 2.51 µM [inhibitor, full curve]",
O=C(OCC(=O)C12CC3CC(CC(C3)C1)C2)c1ccc(O)cc1O,"inconclusive: 28.2 µM [inhibitor, single point]",
NNc1nnc(-c2ccccc2)c(-c2ccccc2)n1,"inconclusive: 12.6 µM [inhibitor, single point]",
CCCCC(=O)/C=C/n1c(=S)oc2ccccc21,"inconclusive: 14.1 µM [inhibitor, single point]",
O=C(NCC1CCCO1)c1cc2n(n1)C(C(F)(F)F)CC(c1ccc(Br)cc1)N2 (stereo not given),inactive,
Cc1cc(=O)n(Cc2cccc(Cl)c2)c2c1c(C)nn2-c1ccccc1,inactive,
O=C(NCc1nnnn1-c1ccc(Cl)cc1)c1ccc(Br)o1,inactive,
O=C(COC(=O)c1nc(Cl)c(Cl)c(Cl)c1Cl)c1ccc[nH]1,"inconclusive: 28.2 µM [inhibitor, single point]",
CCCCCCCCCCOC(=O)Cn1c(COc2ccccc2OC)[n+](C)c2ccccc21,"inconclusive: 10 µM [inhibitor, partial curve]",
CCCn1nc([N+](=O)[O-])c(C(C#N)c2nc3ccccc3o2)c(Cl)c1=O (stereo not given),"inconclusive: 28.2 µM [inhibitor, single point]",
O=C(Nc1ccc(N2CCN(C(=O)c3cccs3)CC2)cc1)c1ccc(Br)o1,inactive,
COc1cc2c(O)c3c(c(-c4ccc5c(c4)OCO5)c2cc1OC)C(=O)OC3,"inconclusive: 1.26 µM [inhibitor, full curve, poor fit]",
CC(=O)Nc1cc(NC(C)=O)cc(-c2nc3ccccc3[nH]2)c1,"inconclusive: 28.2 µM [inhibitor, single point]",
Cc1nc2ccccc2n1CCc1nc2c3ccccc3nc(SCC(=O)NCc3ccco3)n2n1,active: 10 µM,
CCOC(=O)c1cc2c(nc1NC(=S)NCc1ccccc1)CCCC2,inactive,
CCCCC(=O)NC(=S)Nc1cccc(Cl)c1N1CCCCC1,"inconclusive: 10 µM [inhibitor, partial curve, poor fit]",
CCOC(=O)C1(Cc2cccc(Cl)c2)CCCN(C(=O)c2cccnc2)C1 (stereo not given),"inconclusive: 2.51 µM [inhibitor, partial curve, poor fit]",
CCN(CC)CCCN(C(=O)c1cccc(C)c1)c1nc(-c2ccc(OC)cc2)cs1,"inconclusive: 15.8 µM [inhibitor, single point]",
O=C(Nc1nc2c(cc3c4c(cccc42)CC3)s1)c1ccccc1Cl,inactive,
O=C(c1cccc(F)c1)N(Cc1nc2ccccc2c(=O)[nH]1)C1CCCC1,"inconclusive: 11.2 µM [inhibitor, partial curve, poor fit]",
Cn1c(Cl)cnc1C1CC(=O)c2cc(Cl)ccc2O1 (stereo not given),active: 7.94 µM,

Compound,Potency,"activity change, negative = inhibition"
O=c1c(=O)n(-c2cccc(Cl)c2)ccn1Cc1cccc(F)c1,inactive,
CC1(C)OC(c2ccccc2)=C/C(=C/C=N/NC(=O)c2ccncc2)O1,"inconclusive: 10 µM [inhibitor, single point]",
CC(=O)Nc1cccc(NC(=O)CSc2ccc(C(F)(F)F)cc2[N+](=O)[O-])c1,inactive,
CC(C)(O)C#Cc1ccc([C@@H]2C[C@H]3CN(c4ccccc4)C(=O)[C@]34CCCN24)s1,"inconclusive: 1.26 µM [inhibitor, full curve, poor fit]",
CCn1cc(C(=O)NCc2ccccc2)c(=O)c2cc(F)c(N3CCN(C(=O)c4ccco4)CC3)cc21,inactive,
Cc1nnc(SCC(=O)Nc2ccc(Br)cc2)[nH]c1=O,inactive,
COc1ccc(C)cc1Nc1nc(-c2cccc(Cl)c2)c2c(n1)-c1ccccc1OC2,"inconclusive: 14.1 µM [inhibitor, single point]",
Cc1ccc(-c2nc(N3CCN(c4ccccc4Cl)CC3)c3ccccc3n2)cc1,inactive,
CCCCC(CC)CNC(=O)CCCn1c(=O)[nH]c2ccsc2c1=O (stereo not given),inactive,
CCCc1nc(-c2cc3ccc(C)cc3[nH]c2=O)no1,inactive,
COc1ccccc1C1(CC(=O)Nc2nccs2)CCOC(C(C)C)C1 (stereo not given),inactive,
CCOC(=O)Cn1nc(C)cc1NC(=O)c1ccncc1,,inactive: 1.97% [at 7.66 µM]
CCOC(=O)N1CCN(C(=S)NC(=O)c2ccc(Br)cc2)CC1,"inconclusive: 0.501 µM [inhibitor, full curve, poor fit]",
COc1ccc(-c2cc(C(F)F)nc(-n3nc(C)cc3C)n2)cc1,"inconclusive: 10 µM [inhibitor, partial curve, poor fit]",
Cc1ccc(Cn2cc(/C=N/Nc3ccc([N+](=O)[O-])cn3)c3ccccc32)cc1,"inconclusive: 28.2 µM [inhibitor, single point]",
COc1ccc(C(=O)Nc2nc3ccccc3s2)cc1,"inconclusive: 10 µM [inhibitor, partial curve, poor fit]",
CCOC(=O)C1CCCN(c2ccc(NC(=O)c3snc4c(=O)[nH]cnc34)cc2)C1 (stereo not given),"inconclusive: 20 µM [inhibitor, single point]",
CCC(C)N(CCNC(=O)c1ccc2c(c1)NC(=O)c1ccccc1S2)C1CCCCC1 (stereo not given),"inconclusive: 10 µM [inhibitor, partial curve, poor fit]",
O=C(CN1CCN(C(=O)c2cccc(S(=O)(=O)N3CCCC3)c2)CC1)Nc1cccc(F)c1,inactive,
CCc1nc2ccc(C(=O)NCc3ccc4c(c3)OCO4)cn2c1N(CCC(C)C)CCN(C)C,"inconclusive: 4.47 µM [inhibitor, partial curve, poor fit]",
CCc1ccc(N2C(=O)C(Cl)=C(N3CCCCCC3)C2=O)cc1,inactive,
COc1ccc(C(=O)CN2C(=O)N(c3ccc(C(C)=O)cc3)S(=O)(=O)c3ccccc32)cc1,inactive,
O=C(NNC(=O)c1cc(-c2ccccc2)nc2ccccc12)c1csc(N2CCOCC2)n1,"inconclusive: 22.4 µM [inhibitor, single point]",
O=C1Cc2ccccc2Sc2c(OCCN3CCCCC3)cccc21,"inconclusive: 11.2 µM [inhibitor, partial curve, poor fit]",

Compound,Potency,"activity change, negative = inhibition"
CCCCCCOC(=O)C(C#N)c1nc2ccccc2nc1N1CCN(C)CC1 (stereo not given),"inconclusive: 12.6 µM [inhibitor, single point]",
CCCOC(=O)C1C2C=CC3(CN(c4ccc(Cl)c(F)c4)C(=O)C13)O2 (stereo not given),inactive,
Cc1ccc(NC(=O)CCl)cc1S(=O)(=O)N1CCCCCC1,"inconclusive: 11.2 µM [inhibitor, partial curve, poor fit]",
Cc1c(Cl)cccc1NC(=O)CN1C(=O)COc2ccc(S(=O)(=O)Nc3ccccc3)cc21,inactive,
O=C(Nc1ccccc1C(=O)Nc1nccs1)c1ccccc1,inactive,
COc1cccc(-n2c(SCC(=O)NC3CCCCC3)nc3n[nH]c(C)c3c2=N)c1,"inconclusive: 10 µM [inhibitor, single point]",
CCCCN1C(N)=NC[C@@H]1C(C)O (stereo not given in full),"inconclusive: 6.31 µM [inhibitor, partial curve, poor fit]",
CN(C(=O)CSc1ncnc2sc(-c3ccccc3)cc12)C1CCS(=O)(=O)C1 (stereo not given),"inconclusive: 11.2 µM [inhibitor, single point]",
CN1CCC2(CC1)Nc1nc(SCc3ccc(Cl)cc3)nn1C1=C2CN(C)CC1,"inconclusive: 11.2 µM [inhibitor, single point]",
S=c1[nH]cnc2scc(-c3ccccc3)c12,"inconclusive: 11.2 µM [inhibitor, partial curve, poor fit]",
Cc1cc(C)nc(NC(=O)/C=C/c2ccccc2Cl)n1,inactive,
COc1ccc(Cl)cc1NC(=O)CCc1c(C)nc2c(c1C)c(=O)n(C)c(=O)n2C,inactive,
COc1ccc(-c2nc3sc(CCNC(=O)c4cc(Cl)ccc4OC)c(C)n3n2)cc1,inactive,
CCCc1nc(SCC(=O)Nc2cc(C)on2)c2ccccc2n1,"inconclusive: 7.94 µM [inhibitor, partial curve, poor fit]",
O=C1CC(c2ccc(F)cc2)c2cc3c(cc2N1)CCC3 (stereo not given),"inconclusive: 10 µM [inhibitor, partial curve, poor fit]",
O=C(NCc1cccs1)c1nc2c(nnn2Cc2ccccc2Cl)c(=O)[nH]1,"inconclusive: 3.55 µM [inhibitor, partial curve]",
COc1cccc(C(=O)N(Cc2cc3cc(C)ccc3[nH]c2=O)CC2CCCO2)c1 (stereo not given),"inconclusive: 25.1 µM [inhibitor, single point]",
CCC1=Nc2cc(C(=O)N3CCCCC3)ccc2Sc2ccc(C)cc21,"inconclusive: 31.6 µM [inhibitor, single point]",
CC(C)(C)c1ccc(OCc2ccc(C(=O)N3CCOCC3)o2)cc1,"inconclusive: 31.6 µM [inhibitor, single point]",
COc1ccc(N=[N+]([O-])c2ccc(OC)cc2)cc1,inactive,
CC1=NN(C(N)=S)C(=O)C1N=Nc1ccccc1C (stereo not given),"inconclusive: 0.282 µM [inhibitor, full curve, poor fit]",
Cc1ccc(-n2cc(CN(C)Cc3ncc[nH]3)c(-c3cccc(C)c3)n2)cc1,"inconclusive: 28.2 µM [inhibitor, single point]",
